Assay results: publication PMC4336329 (PLoS ONE, 2015)
The campaign covered roughly 310,000 compounds. About 2,200 (0.71%) showed an effect of 50% or more. Effects have a minus sign here. The list shows a part of the results.

molecular target: human ether-à-go-go-related gene (hERG) potassium channel (human, UniProt Q12809); assay: primary screen, population patch clamp on CHO cells stably expressing hERG
Sequence (Q12809 whole entry, looked up): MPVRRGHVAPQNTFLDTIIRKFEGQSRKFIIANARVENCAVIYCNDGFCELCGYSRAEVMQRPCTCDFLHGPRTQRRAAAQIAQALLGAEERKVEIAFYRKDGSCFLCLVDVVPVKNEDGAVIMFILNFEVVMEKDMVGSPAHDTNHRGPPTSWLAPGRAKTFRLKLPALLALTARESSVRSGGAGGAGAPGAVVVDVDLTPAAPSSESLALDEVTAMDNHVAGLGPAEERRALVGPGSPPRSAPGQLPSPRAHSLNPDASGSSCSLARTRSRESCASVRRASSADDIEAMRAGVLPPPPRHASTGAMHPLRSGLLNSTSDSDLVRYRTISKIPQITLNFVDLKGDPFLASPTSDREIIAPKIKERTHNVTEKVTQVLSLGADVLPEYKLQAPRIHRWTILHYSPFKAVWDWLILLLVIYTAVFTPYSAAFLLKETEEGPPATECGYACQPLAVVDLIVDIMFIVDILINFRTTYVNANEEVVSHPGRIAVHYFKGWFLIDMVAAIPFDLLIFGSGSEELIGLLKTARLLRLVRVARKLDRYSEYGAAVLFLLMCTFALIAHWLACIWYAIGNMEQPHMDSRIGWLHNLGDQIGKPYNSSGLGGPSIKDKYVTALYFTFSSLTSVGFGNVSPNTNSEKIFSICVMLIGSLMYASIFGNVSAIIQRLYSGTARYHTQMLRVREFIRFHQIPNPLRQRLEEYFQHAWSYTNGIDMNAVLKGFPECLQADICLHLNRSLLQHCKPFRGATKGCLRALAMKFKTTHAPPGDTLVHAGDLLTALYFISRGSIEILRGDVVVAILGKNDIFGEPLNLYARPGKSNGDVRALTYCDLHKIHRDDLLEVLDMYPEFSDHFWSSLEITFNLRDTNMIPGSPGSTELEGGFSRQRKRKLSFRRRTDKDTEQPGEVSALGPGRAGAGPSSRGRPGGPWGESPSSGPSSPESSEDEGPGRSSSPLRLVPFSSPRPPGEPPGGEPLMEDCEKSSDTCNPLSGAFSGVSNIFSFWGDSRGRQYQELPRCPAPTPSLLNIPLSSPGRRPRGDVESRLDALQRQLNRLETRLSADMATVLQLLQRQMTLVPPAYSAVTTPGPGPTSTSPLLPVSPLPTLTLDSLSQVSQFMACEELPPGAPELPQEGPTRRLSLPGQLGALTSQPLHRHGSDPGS

| SMILES | hERG current change (%, negative = inhibition) at 1uM |
| --- | --- |
| N/C(=N\OCc1ccccc1)c1nonc1N | 13.2% |
| COc1ccc(/C=N/NC(=O)c2c(Br)cnn2C)c2ccccc12 | 18.4% |
| O=C(NCc1ccc2c(c1)OCO2)C1CCC(CNc2c(N3CCCCC3)c(=O)c2=O)CC1 (stereo not shown) | 1.06% |
| COc1ccc(COC(=O)C2=C(C)NC(=O)NC2c2ccccc2)cc1 (stereo not shown) | 15.9% |
| Cc1nc2ccc(C(=O)OCc3nnc(-c4ccc(Br)cc4)o3)cc2nc1C | 15.4% |
| Cc1cc(Oc2ccc(Cl)cc2)nc(-c2ccccn2)n1 | 15.7% |
| CCCOc1ccc(-c2csc3ncn(Cc4ccc(C(=O)O)cc4)c(=O)c23)cc1 | 10.2% |
| CC1CCCN(S(=O)(=O)c2ccc(S(=O)(=O)N3CCCC3)cc2)C1 (stereo not shown) | 18.7% |
| Cc1ccc2occ(/C=N/NC(=O)c3ccccc3O)c(=O)c2c1 | 12.7% |
| O=c1cc(-c2ccc([N+](=O)[O-])cc2)c2ccc(O)cc2o1 | 0.138% |
| Cc1cc(NC(=O)c2cccc(S(=O)(=O)N3CCCC3)c2)no1 | 4.75% |
| CCCc1cc(C(=O)Nc2cccnc2Cl)no1 | 9.15% |
| O=C(Nc1ccccc1)C1=C(O)CC(c2ccoc2)CC1=Nc1ccccc1 (stereo not shown) | 17.3% |
| O=C(O)CC/C(=N\NC(=O)CNC(=O)/C=C/c1ccccc1)c1ccccc1 | 12.8% |
| Cc1ccc(NNC(=O)c2ccno2)c(C)c1 | 11.1% |
| COC(=O)C(Cc1ccc(O)cc1)NC(=O)c1ccc2c(c1)OCCO2 (stereo not shown) | 15.2% |
| COc1ccc(C(=O)NC(=S)NCc2cccnc2)cc1Br | 1.85% |
| CCCCS(=O)(=O)c1sc2nc(C)cc(C)c2c1N | 12.2% |
| O=C(Nc1nc(-c2ccccc2)cs1)Nc1ccc(F)cc1F | 6.19% |
| CC(=O)N1N=C(c2cccc([N+](=O)[O-])c2)OC1(C)c1cccs1 (stereo not shown) | 4.03% |
| Cc1c(NC(=O)Nc2cccs2)cccc1[N+](=O)[O-] | -2.27% |
| Cc1cc(C)cc(NC(=O)Cn2cc3c(n2)CCCCC3)c1 | 4.91% |
| Cc1ccc(N(C(=O)CCC(=O)Nc2cc(C)on2)C(C(=O)NC2CCCC2)c2cccs2)cc1 (stereo not shown) | 0.152% |
| CCOC(=O)C1CCN(C(=O)COc2cccc3ccccc23)CC1 | 4.56% |
| O=C1CCC(=O)N1c1cccc(OS(=O)(=O)c2ccccc2)c1 | 4.44% |
